From paper PMC6919601, “Identification of Plasmodium dipeptidyl aminopeptidase allosteric inhibitors by high throughput screening” (PLoS ONE, 2019)
Values joined by “and” are separate entries in the source; they are usually repeats but may differ in a detail not shown here. Equal entries are not always repeated. In all, about 110,000 compounds went through this assay and about 230 (0.21%) showed an effect of 50% or more. The list shows a part of the results.

Each compound was assayed against DPAP1 (Plasmodium falciparum, UniProt Q8IIJ9) (assay: primary screen, percent inhibition; read by cleavage of a fluorogenic dipeptide substrate; higher = more effect of the substance).
Set-up: species or system P. falciparum D10 trophozoite lysates; single well
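Note: 30 min substrate incubation versus DMSO and 10 µM JCP410 controls.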

DPAP1, sequence (Q8IIJ9 whole entry, looked up): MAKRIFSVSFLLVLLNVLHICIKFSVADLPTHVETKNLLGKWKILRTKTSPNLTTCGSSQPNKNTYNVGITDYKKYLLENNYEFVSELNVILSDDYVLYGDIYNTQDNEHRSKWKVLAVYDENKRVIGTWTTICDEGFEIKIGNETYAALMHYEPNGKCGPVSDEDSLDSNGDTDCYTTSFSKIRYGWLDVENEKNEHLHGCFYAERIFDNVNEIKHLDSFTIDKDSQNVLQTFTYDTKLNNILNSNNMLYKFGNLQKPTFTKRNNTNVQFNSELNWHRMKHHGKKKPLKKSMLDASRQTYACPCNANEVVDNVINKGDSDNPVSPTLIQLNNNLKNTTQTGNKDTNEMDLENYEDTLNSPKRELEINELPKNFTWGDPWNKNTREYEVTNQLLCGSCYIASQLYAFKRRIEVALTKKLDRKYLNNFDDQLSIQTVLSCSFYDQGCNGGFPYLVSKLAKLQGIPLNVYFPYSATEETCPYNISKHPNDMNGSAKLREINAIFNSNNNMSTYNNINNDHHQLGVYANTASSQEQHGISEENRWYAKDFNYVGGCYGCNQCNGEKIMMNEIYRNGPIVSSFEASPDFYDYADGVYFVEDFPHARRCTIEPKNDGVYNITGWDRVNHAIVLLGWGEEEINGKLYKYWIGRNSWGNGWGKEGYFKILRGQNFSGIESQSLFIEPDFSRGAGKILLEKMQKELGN

Row | SMILES | % Inhibition @ 10 uM
1 | Cc1nn(CC(=O)NCCc2ccc(Cl)cc2)c(=O)c2nn(-c3ccccc3)c(C)c12 | 8.44%
2 | CCCN1C(=O)c2[nH]nc(-c3ccccc3O)c2C1c1ccc(OC)c(OC)c1 (stereo not shown) | -1.35%
3 | CCCCCc1ccc(-c2ccc(-c3ncc(N)cn3)cc2)cc1 | -5.62%
4 | COc1ccc2nc(NC(=O)Cn3cnc4onc(-c5ccc(Cl)cc5)c4c3=O)sc2c1 | 7.39%
5 | COc1cc(OC)cc(C(=O)Nc2nc(-c3nnn(-c4cc(C)ccc4C)c3C)ns2)c1 | -5.47%
6 | c1cc2c(cc1-c1nnc(CN3CCN(C4CCCCC4)CC3)o1)OCO2 | 9.51%
7 | CCOC(=O)C1=C(CC)OC(N)=C(C#N)C1c1cccs1 (stereo not shown) | -3.72%
8 | COc1cccc(C2c3c(-c4c(C)cc(C)cc4O)n[nH]c3C(=O)N2CCCO)c1 (stereo not shown) | 0.00706%
9 | N#CCNC(=O)[C@@H](NC(=O)OCc1ccccc1)C1CCCC1 | -4.72%
10 | Cc1ccc2c(=O)c(C(=O)c3ccc(Cl)cc3)cn(CC(N)=O)c2n1 | -1.52%
11 | O=S1(=O)CCC(N2CCOCC2)C1 (stereo not shown) | -0.152%
12 | CC(C)NC(=O)CN(Cc1ccccc1Cl)S(=O)(=O)c1ccc(Br)cc1 | 3.21%
13 | Cc1ccc2c(Sc3ccc(Cl)cc3)c(C(=O)NCCN3CCN(C)CC3)[nH]c2c1 | -4.45%
14 | O=C(Cn1ncc2c1-c1ccccc1OC2)NCC1(c2ccccc2)CCCC1 | 2.6%
15 | CCN1CCN(C(=O)C2CCN(c3ncnc4c3sc3cccc(F)c34)CC2)CC1 | 2.65%
16 | CCOc1cccc(C(=O)Nc2ccc(NC(=O)c3cccs3)cc2)c1 | -11%
17 | CC(C)Nc1nc(Oc2ccccc2)nc(Oc2ccccc2)n1 | 2.7%
18 | O=[N+]([O-])c1ccc(SCCc2ccncc2)cc1 | 0.757% and 9.38%
19 | CC1CCC(NS(=O)(=O)c2ccc(-n3cccn3)cc2)CC1 (stereo not shown) | 0.0855%
20 | CC1C/C(=C\C=C\N(C)C)C(=O)/C(=C/C=C/N(C)C)C1 (stereo not shown) | 4.84%
21 | Cc1ccc(CSc2nc3ncccc3c(=O)n2CC2CCCO2)cc1 (stereo not shown) | -1.66%
22 | CC1CN(C2=NC(=O)/C(=C\c3ccc(N(C)C)cc3)S2)CC(C)O1 (stereo not shown) | 8.05%
23 | CC(C)C[C@H](NC(=O)c1ccc(-c2ccccc2)cc1Cl)C(=O)NCC#N | -5.2%
24 | CCOc1ccc(C2C3=C(O)CCCC3=NC(C)=C2C(=O)N2CCCCC2)cc1OC (stereo not shown) | -3.23%
25 | Cc1cc(C(=O)NCCc2ccccc2)no1 | 2.98%

Row | SMILES | % Inhibition @ 10 uM
26 | Cc1ccc(N2/C(=N/C(=O)c3ccccc3)SC3CS(=O)(=O)CC32)cc1 (stereo not shown) | 0.709%
27 | O=C1NCCCC[C@@H]1Nc1ccccn1 | -3.09%
28 | O=C(O)C1CC(c2ccc(Br)cc2)=Nc2ccccc2S1 (stereo not shown) | -13.3%
29 | CCc1ccc(C2=CC(c3ccc(OC)c(OC)c3OC)n3ncnc3N2)cc1 (stereo not shown) | -1.62%
30 | CCOc1cc(/C=C2/SC(=O)N(CC(=O)Nc3ccccc3C)C2=O)ccc1O | -0.865%
31 | CN(C)CCCN1C(=O)CSC1c1ccc(Br)cc1 (stereo not shown) | 6.18%
32 | CCOc1ccc(CCNC(=O)CCc2c(C)nc3c4cccnc4nn3c2C)cc1 | -3.45%
33 | COc1ccc2c(Cl)c(C(=O)Nc3ccc(NC(C)=O)cc3)sc2c1 | -2.83%
34 | CC(C)(C)c1ccccc1OCCCCCN1CCOCC1 | -2.54%
35 | COc1c(O)cnn(C(C)(C)C)c1=O | -3.67%
36 | Cc1cc(-c2noc(/C=C/c3ccc(F)cc3)n2)c2ccccc2n1 | 1.32%
37 | Cc1c(C(=O)NCc2ccc3c(c2)OCO3)oc2ccc3c(c12)C(=O)CC1(CCCCC1)O3 | -4.68%
38 | Cc1cc(=O)n2nc(N3CCCC(C(=O)NC4CCCc5ccccc54)C3)sc2n1 (stereo not shown) | 1.38%
39 | CC(C)CSCCc1ccncc1 | 3.34%
40 | CCCN(CCC)S(=O)(=O)c1ccc(NC(=O)c2ccc(Br)cc2)cc1 | 2.13%
41 | CCOC(=O)c1ccc(N2C(=O)C3C(c4ccc(C)cc4)OC4(C(=O)c5ccccc5C4=O)C3C2=O)cc1 (stereo not shown) | 38%
42 | COc1ccc(CCC(=O)Nc2cccc3ccc(C)nc23)cc1 | -3.71%
43 | Cc1ccc(CNC(=O)CN(c2ccc(F)cc2)S(=O)(=O)c2ccc3c(c2)OCCO3)cc1 | -1.61%
44 | COc1ccc(/C=C(/NC(=O)c2ccc(C)cc2)C(=O)N2CCOCC2)cc1OC | 2.45%
45 | CCCCc1[nH]nc2c1C1(CCN(C(=O)c3ccccc3)CC1)C(C#N)=C(N)O2 | 0.722%
46 | Cc1cc(C)c(C2=CC(C(F)F)=NCCN2)c(O)n1 | 3.38%
47 | O=C1NC(=S)N/C1=C\c1cccnc1 | -5.61%
48 | CC1(C)CC(=O)C2=C(C1)OC(N)=C(C#N)C2c1cccc(OCc2ccccc2)c1 (stereo not shown) | 1.4%
49 | N#Cc1ccc(CSc2nc(O)cc(-c3ccccc3)n2)cc1 | 3.79%
